Data as given in paper PMC7409549, “A time-resolved interaction analysis of Bem1 reconstructs the flow of Cdc42 during polar growth” (Life Science Alliance, 2020).
Changes are numbered by the printed parent chain. Results are given in words; binding and its absence hold for the method and conditions named. In cells and extracts the contact can be indirect. Some entries that bind do so weakly or less than the wild type. For part of these data: Tags and fused reporters may be left off the sequences shown.

Protein sequences, listed by entry. Tags and fused reporters are not part of them.
UniProt P19658: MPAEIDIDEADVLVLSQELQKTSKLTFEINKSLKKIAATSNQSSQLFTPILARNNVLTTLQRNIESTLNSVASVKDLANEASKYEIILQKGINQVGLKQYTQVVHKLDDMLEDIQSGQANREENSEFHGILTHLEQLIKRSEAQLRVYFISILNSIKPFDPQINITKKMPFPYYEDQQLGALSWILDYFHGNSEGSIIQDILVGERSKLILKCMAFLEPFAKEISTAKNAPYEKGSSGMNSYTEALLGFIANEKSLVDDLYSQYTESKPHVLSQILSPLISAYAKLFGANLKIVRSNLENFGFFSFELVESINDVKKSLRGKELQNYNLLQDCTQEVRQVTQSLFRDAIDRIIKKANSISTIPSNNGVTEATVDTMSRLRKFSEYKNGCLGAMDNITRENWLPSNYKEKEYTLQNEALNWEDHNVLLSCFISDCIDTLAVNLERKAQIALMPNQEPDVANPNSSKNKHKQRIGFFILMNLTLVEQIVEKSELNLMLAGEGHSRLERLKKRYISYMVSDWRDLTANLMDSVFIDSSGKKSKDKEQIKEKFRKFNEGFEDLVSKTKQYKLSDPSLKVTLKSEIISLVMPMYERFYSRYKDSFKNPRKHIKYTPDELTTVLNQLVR
UniProt P19073: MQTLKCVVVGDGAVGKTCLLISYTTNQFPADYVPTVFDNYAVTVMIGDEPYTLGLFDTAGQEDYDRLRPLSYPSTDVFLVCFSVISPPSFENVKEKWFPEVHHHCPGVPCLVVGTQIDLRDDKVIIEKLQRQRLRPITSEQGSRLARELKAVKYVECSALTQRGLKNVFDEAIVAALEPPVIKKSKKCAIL

T1: Bem1-mCherry-Cub-RGFP (S. cerevisiae) (UniProt P29366)
T1 sequence: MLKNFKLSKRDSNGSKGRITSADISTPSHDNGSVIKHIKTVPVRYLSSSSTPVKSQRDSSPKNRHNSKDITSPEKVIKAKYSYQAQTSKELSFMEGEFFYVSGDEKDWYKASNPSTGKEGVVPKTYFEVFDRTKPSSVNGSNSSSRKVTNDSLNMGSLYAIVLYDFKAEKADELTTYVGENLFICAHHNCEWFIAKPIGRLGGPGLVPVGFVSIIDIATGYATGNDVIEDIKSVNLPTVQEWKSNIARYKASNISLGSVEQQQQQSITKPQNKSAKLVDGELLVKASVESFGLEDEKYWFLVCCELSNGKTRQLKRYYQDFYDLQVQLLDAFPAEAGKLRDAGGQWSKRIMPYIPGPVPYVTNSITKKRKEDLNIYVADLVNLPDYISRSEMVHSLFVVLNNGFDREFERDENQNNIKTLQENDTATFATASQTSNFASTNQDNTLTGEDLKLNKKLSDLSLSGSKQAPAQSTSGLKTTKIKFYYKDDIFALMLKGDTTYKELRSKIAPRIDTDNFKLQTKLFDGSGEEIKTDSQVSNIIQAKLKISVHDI

T2: Bem1-Cub-RUra3 (S. cerevisiae) (UniProt P29366)
T2 sequence: T1 sequence

T3: Bem1WK-Cub-RUra3 (S. cerevisiae) (UniProt P29366)
T3 sequence: T1 sequence with W192K

T4: Bud6_(1-364)CRU (S. cerevisiae) (UniProt P41697)
T4 sequence: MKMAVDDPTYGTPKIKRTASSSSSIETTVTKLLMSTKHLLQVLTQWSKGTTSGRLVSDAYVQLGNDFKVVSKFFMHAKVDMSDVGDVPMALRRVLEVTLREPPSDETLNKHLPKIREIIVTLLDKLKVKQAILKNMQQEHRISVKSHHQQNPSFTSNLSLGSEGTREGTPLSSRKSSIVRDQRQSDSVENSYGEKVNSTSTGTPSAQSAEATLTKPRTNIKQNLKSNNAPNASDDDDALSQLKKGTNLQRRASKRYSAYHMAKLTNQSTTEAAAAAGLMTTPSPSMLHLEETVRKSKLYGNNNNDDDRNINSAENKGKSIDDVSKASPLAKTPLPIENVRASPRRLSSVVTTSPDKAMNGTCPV

T5: Fir1CRU (S. cerevisiae) (UniProt P40020)
T5 sequence: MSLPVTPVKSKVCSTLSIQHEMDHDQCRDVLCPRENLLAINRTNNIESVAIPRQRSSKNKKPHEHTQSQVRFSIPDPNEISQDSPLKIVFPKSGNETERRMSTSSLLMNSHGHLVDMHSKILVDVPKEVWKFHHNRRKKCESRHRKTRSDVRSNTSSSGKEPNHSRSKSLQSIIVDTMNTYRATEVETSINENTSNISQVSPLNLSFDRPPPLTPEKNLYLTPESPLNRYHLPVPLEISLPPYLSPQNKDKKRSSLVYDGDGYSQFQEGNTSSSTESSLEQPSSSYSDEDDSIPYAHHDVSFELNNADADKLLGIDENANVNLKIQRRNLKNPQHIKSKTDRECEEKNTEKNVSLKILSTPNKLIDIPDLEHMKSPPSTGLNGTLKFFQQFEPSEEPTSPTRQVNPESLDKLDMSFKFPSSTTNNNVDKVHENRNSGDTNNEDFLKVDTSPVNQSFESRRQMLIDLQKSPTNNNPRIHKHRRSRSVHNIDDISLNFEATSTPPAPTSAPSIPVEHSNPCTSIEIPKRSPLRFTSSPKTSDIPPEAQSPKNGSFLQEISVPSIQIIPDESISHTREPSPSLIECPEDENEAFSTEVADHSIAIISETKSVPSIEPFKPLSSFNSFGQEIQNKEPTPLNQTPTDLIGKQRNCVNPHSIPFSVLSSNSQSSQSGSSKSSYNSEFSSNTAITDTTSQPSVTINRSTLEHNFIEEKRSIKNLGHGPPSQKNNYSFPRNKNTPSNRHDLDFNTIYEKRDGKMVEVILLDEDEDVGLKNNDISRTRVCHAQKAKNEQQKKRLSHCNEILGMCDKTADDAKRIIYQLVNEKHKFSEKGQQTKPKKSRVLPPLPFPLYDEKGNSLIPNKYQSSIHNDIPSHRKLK

T6: Nba1CRU (S. cerevisiae) (UniProt Q08229)
T6 sequence: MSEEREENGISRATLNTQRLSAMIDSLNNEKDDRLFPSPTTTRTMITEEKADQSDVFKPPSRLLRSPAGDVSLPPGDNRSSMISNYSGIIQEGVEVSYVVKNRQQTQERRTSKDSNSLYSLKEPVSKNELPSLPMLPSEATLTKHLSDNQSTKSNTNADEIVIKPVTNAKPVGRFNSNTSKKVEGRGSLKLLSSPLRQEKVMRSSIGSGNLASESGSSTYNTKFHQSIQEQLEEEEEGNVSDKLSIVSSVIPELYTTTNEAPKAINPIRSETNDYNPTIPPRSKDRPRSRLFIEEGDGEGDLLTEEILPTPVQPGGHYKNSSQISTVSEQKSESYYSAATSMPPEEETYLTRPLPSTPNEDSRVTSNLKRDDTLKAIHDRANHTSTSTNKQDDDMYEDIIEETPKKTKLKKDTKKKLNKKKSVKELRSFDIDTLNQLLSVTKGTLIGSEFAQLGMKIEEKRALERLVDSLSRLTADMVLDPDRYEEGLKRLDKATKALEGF

T7: Bem1-Cub-RUra3 (S. cerevisiae), P29366
T7 chain: T1 sequence

B1: Nub-Boi1 (protein, UniProt P38041 1-980)
chain: MSLEGNTLGKGAKSFPLYIAVNQYSKRMEDELNMKPGDKIKVITDDGEYNDGWYYGRNLRTKEEGLYPAVFTKRIAIEKPENLHKSPTQESGNSGVKYGNLNDSASNIGKVSSHQQENRYTSLKSTMSDIDKALEELRSGSVEQEVSKSPTRVPEVSTPQLQDEQTLIQEKTRNEENTTHDSLFSSTADLNLSSESLKNISKSNISTKSLEPSSESVRQLDLKMAKSWSPEEVTDYFSLVGFDQSTCNKFKEHQVSGKILLELELEHLKELEINSFGIRFQIFKEIRNIKSAIDSSSNKLDADYSTFAFENQAAQLMPAATVNRDEIQQQISSKCNKLSSESSDRKSSSVTTELQRPSSVVVNPNFKLHDPAEQILDMTEVPNLFADKDIFESPGRAPKPPSYPSPVQPPQSPSFNNRYTNNNARFPPQTTYPPKNKNPTVYSNGLIPNSSTSSDNSTGKFKFPAMNGHDSNSRKTTLTSATIPSINTVNTDESLPAISNISSNATSHHPNRNSVVYNNHKRTESGSSFVDLFNRISMLSPVKSSFDEEETKQPSKASRAVFDSARRKSSYGHSRDASLSEMKKHRRNSSILSFFSSKSQSNPTSPTKQTFTIDPAKMTSHSRSQSNSYSHARSQSYSHSRKHSLVTSPLKTSLSPINSKSNIALAHSETPTSSNNKEAVSQPSEGKHKHKHKHKSKHKHKNSSSKDGSSEEKSKKKLFSSTKESFVGSKEFKRSPSELTQKSTKSILPRSNAKKQQTSAFTEGIRSITAKESMQTADCSGWMSKKGTGAMGTWKQRFFTLHGTRLSYFTNTNDEKERGLIDITAHRVLPASDDDRLISLYAASLGKGKYCFKLVPPQPGSKKGLTFTEPRVHYFAVENKSEMKAWLSAIIKATIDIDTSVPVISSYATPTIPLSKAQTLLEEARLQTQLRDAEEEEGRDQFGWDDTQNKRNSNYPIEQDQFETSDYLESSAFEYPGGRL
B2: Nub-Msb1, P21339 1-1137 (protein)
chain: MNDMAKPLPTPPTAEIRKSRSNSPKKAQKTNLSPNKNQNNEKNVPRSNGRTKNEHNSMDDEEFEFFHQFSREKVKGVIHVITAELKEKGPDVEFLMIPFRPEQTNDKLLTLLNQLFPLGNGQPVNEKKQLRIVSKADVWTLFQCLKYIWCRLPNSEIIGWKSYLEFKFREEDKKFPRKSFLEIMPQCLASPNHASIVYDFFDLIISISSNSRVNKMSARKISKMCAIWAFSKQIPNSDIQDYDFESAAMKSFAPNNSIQDGLDQWIPASDAMFHLLLAFLRSFVPQDLESAKLPRTLKSLLFNNQYPPRKSTAYTSETILTIPLVTLKTDVFSRKPWQLLERCNDLLDFSDHDAFEAREDYALLKSLFRKKNTVEGISRKMSQESRRLMKAMSTKHSTFQPGWAPRECIENISHLKECIEVKRLDIDDYFIWTWLSSLSFEQTSEKKKIFGRSIILEFEFDGFKKWVVFQECDITLDYNKKGQLKKKTSAQSPTTEKELPPDDFELEDPPLSKSPTLSQTYKKFQAEVPQQSTVRRDSAPDNQGIYHTVISKNALTKNKHNVNLHSFEHKISKWNPLNNLRKKSGSNSSSSSFEEKSKDAPIREEYHTNKNHKSKKEERVLSQFSTLNPDEYQLPVIETGSSNFKIEIPELMYEHDDDDSDKLKNSQKRATDSAIEELNGMVEEMMINEPDDVKISITEAETFESLTKFDQYKPSNITDDDLQSSHSSAVHSLKLSTNTNDSCADSSKYTADRKLAEPRKISEESKVNDDSSSYYSPNINNLPASRMPSQPTYSNSDSKKAFTNESRLNVLQGAVSPSQQVTPKPYKNAPGDCVSPVQQKYYQNDRRNEMSPASAPVPPSAYSPARSPQFSTNSAGFKQNTINVPVGYNDPAHVLANQPHMTYRDQHNYPSHQQKQRPFQNNIVPPELKSRNQRADASPIPQHMVPVKQGVPNLPSNVPLYQQMERMNPNHQHPVNTYKVTQPPYHNNTTNAYGNSRAGNAHMLDGKWSNNPPQMVPKGVRPNQYPQQHVNRYSPQAQPVVPAEYYNGPPPMRAPPMMSHMVPAQEPIRYTAGANRRSFPQGMQQNAYSVPAQPMGAVNSEFYLPEAPQGNKLHGNINKRQERKKLYDNIRSGNFGI

Experiments:
[1] = biological target: T1, Bem1-mCherry-Cub-RGFP (S. cerevisiae); experiment: split reporter; SPLIFF as a9, measured at the cell front during bud site assembly and bud growth (PCDII)
[2] = biological target: T1, Bem1-mCherry-Cub-RGFP (S. cerevisiae); experiment: split reporter; SPLIFF as a9, measured at the bud neck from completion of acto-myosin ring contraction until abscission (PCDIII)
[3] = biological target: T2, Bem1-Cub-RUra3 (S. cerevisiae); experiment: split reporter; split-ubiquitin (Split-Ub): a-cells with a Cub-RUra3 (CRU) fusion mated with α-cells with Nub fusions (P_CUP1), diploids as quadruplets on SD medium with 1 mg/ml 5-FOA and copper; growth = interaction; detects direct and indirect interactions
[4] = biological target: T3, Bem1WK-Cub-RUra3 (S. cerevisiae); experiment: as above
[5] = biological target: T1, Bem1-mCherry-Cub-RGFP (S. cerevisiae); experiment: split reporter; SPLIFF (split-ubiquitin with mCherry-Cub-RGFP, CCG): a-cells with the CCG fusion mated with α-cells with Nub-HA fusions; conversion of CCG to CC measured by time-lapse microscopy at the site of cell fusion (PCDI); a significant positive slope = interaction
[6] = biological target: T1, Bem1-mCherry-Cub-RGFP (S. cerevisiae); experiment: split reporter; SPLIFF as a9, measured at the cell front during bud site assembly and bud growth (PCDII); remark: listed apart in the source
[7] = biological target: T4, Bud6_(1-364)CRU (S. cerevisiae); experiment: split reporter; split-ubiquitin (Split-Ub): CRU and Nub fusions co-expressed in yeast cells, spotted in 10-fold serial dilutions on medium with 1 mg/ml 5-FOA and copper, 30°C; growth = interaction
Fir1CRU (S. cerevisiae) = biological target: T5, Fir1CRU (S. cerevisiae); experiment: as above
Nba1CRU (S. cerevisiae) = biological target: T6, Nba1CRU (S. cerevisiae); experiment: split reporter; split-ubiquitin (Split-Ub): a-cells with a Cub-RUra3 (CRU) fusion mated with α-cells with Nub fusions (P_CUP1), diploids as quadruplets on SD medium with 1 mg/ml 5-FOA and copper; growth = interaction; detects direct and indirect interactions
[8] = biological target: T7, Bem1-Cub-RUra3 (S. cerevisiae), P29366; experiment: as above; conditions: remark: other sources report otherwise

Molecule | binding [1] | binding [2] | binding [3] | binding [4] | binding [5] | binding [6] | binding [7] | binding (Fir1CRU (S. cerevisiae)) | binding (Nba1CRU (S. cerevisiae)) | binding [8]
Nub-Exo70 (from UniProt P19658 1-623) | binds | binds | binds | binds | – | – | – | – | – | –
Nub-Cdc42 (from UniProt P19073 1-191) | binds | binds | binds | binds | binds | – | – | – | – | –
B1 | – | binds | binds | no binding | binds | binds | binds | binds | binds | –
B2 | – | – | – | – | – | – | – | – | – | binds
